# According to the supplement of paper PMC3334620:
# Over roughly 33,000 sequences, “E-score (-0.5 to 0.5)” has its median near -0.012; the highest 2% begin near 0.29. The list shows a part of the results.
# Biological target: T1, Ybr033w (UniProt P38073)
# T1 sequence: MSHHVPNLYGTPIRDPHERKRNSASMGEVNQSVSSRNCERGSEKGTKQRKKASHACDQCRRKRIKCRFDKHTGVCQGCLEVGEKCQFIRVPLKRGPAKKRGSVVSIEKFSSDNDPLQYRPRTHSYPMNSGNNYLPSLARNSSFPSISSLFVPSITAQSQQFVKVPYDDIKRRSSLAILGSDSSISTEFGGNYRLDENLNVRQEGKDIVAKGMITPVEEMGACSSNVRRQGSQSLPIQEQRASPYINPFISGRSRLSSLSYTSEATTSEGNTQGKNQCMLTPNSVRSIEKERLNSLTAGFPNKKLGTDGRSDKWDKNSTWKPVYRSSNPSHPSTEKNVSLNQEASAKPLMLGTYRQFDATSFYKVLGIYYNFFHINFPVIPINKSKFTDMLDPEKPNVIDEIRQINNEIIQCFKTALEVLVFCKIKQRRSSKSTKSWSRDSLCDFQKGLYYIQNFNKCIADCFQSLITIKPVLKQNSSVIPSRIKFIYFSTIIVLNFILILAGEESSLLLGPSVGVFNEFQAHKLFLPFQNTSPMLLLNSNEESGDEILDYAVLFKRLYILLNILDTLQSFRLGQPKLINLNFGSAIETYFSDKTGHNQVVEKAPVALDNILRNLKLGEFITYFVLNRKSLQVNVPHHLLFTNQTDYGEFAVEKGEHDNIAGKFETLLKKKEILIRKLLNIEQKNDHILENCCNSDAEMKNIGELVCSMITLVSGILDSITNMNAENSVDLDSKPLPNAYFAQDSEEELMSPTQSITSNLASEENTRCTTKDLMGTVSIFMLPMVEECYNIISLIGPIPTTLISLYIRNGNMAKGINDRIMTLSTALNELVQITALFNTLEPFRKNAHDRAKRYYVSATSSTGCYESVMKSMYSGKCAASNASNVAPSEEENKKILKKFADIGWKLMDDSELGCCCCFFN
# Experiment: PBM E-score (8-mer binding enrichment) (E-score (-0.5 to 0.5)); higher = stronger / more preferred TF binding; most listed sequences are background and not binding sites
# Details: protein concentration: 200 nM; construct: GST-full length
# Description: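 Universal 'all 10-mer' protein binding microarrays (Agilent AMADID 015681) probed with GST-tagged S. cerevisiae TFs (full-length or DBD) made by in vitro transcription/translation (PURExpress), about 100-200 nM. Bound TF was detected with fluorescent anti-GST. Each ungapped 8-mer (which stands for itself and its reverse complement) is scored by the PBM enrichment score (E-score), a modified Wilcoxon-Mann-Whitney statistic from -0.5 to +0.5, computed with the Universal PBM Analysis Suite. Scale: above 0.35 generally sequence-specific binding.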
row,Sequence,PBM E-score
1,CCTCTTTC,0.0703
2,GCGTGAGC,-0.00285
3,CAGTTTGG,-0.0394
4,GTCCACCA,-0.114
5,AGTAGTCC,0.0545
6,ACCACGAT,0.0967
7,GCTCGTGA,-0.142
8,AATTCTTC,0.267
9,CTCTAGTA,0.0585
10,CTCTAACA,0.143
11,CTGAAGGA,-0.0695
12,CATTCTGG,-0.15
13,AAGTGGCG,0.213
14,AATGAATG,0.206
15,CTTAGAAC,0.132
16,CATTAGAG,0.0843
17,CCTCGGTC,-0.27
18,CTAAAACA,0.148
19,AGACTCAA,-0.0595
20,ATGTCGAA,0.146
21,ACCCACCA,-0.0619
22,CATCCGGA,0.124
23,TACACTCA,0.133
24,GGGGCGGA,-0.149

row,Sequence,PBM E-score
1,ACGTTTAC,-0.0641
2,ATTCCCGA,0.125
3,AATTAAAA,0.112
4,CATACACA,-0.00125
5,TGTTTTAA,0.212
6,CGAATGGA,-0.0495
7,CACATGGC,-0.012
8,GATTAAAA,0.311
9,AGAAGACC,0.0144
10,CGTAACTC,-0.114
11,AGGTTCAT,-0.0199
12,CCGCGTGC,-0.231
13,CATACCAC,-0.0161
14,AGTCGCGA,0.123
15,TAGTGTGA,0.117
16,AGCTATCC,-0.212
17,CTACACGC,-0.172
18,CTGTACTA,0.131
19,ACAAATGG,0.221
20,AAGTTACA,0.258
21,GTACACTA,0.0249
22,TCCATAGA,-0.0343
23,CCTGCCGA,-0.0359
24,CTATGGCC,-0.0512

row,Sequence,PBM E-score
1,CCCGAGGC,-0.329
2,ACGGGTTA,-0.268
3,CCAACTCG,-0.0101
4,ATGCCAAG,0.0709
5,AGCACGGA,-0.121
6,CCCTGGAA,-0.157
7,CGTTGTCC,0.0254
8,ACGTATCC,-0.257
9,TGGATAAA,0.391
10,ACACACCC,0.0734
11,CCCGGGAC,-0.322
12,CTTGTGTC,0.0496
13,TCACAAAA,0.233
14,CGGACCGA,-0.176
15,CCTTAAAC,-0.05
16,ACCTCACA,-0.042
17,CACCGCGG,0.00512
18,ACCTCGAG,0.161
19,CATTATTA,0.243
20,GCAAGGTA,0.031
21,GGATACAA,0.12
22,CCTATGAA,-0.0222
23,CAGCCCCA,-0.133
24,GAGTCTCA,-0.198

row,Sequence,PBM E-score
1,AGACATTA,0.101
2,TGGGGACA,-0.193
3,ATTGTGAA,0.19
4,CAAAGGCG,-0.233
5,ACTTACTA,0.118
6,ATACCCCA,-0.0944
7,CTTTCTAA,0.136
8,CAAGATCA,0.0824
9,ACCCCACC,-0.00413
10,AAATCCCT,-0.0641
11,ATAATCTG,0.117
12,AGGATCAA,0.317
13,CGACTCAG,-0.114
14,CGAACGAG,-0.186
15,GTCGTTGA,-0.108
16,CCATTAGG,-0.119
17,GGCGGCCC,-0.404
18,AACATTCA,0.126
19,CGAGAGAG,-0.0679
20,AATACGAC,0.116
21,AATCTGGA,0.171
22,AGCGGCTC,-0.118
